# Laboratory results from PubChem BioAssay AID445 (National Center for Advancing Translational Sciences (NCATS), 2006).
# About 40 (0.04%) of roughly 110,000 compounds were called active. Inconclusive results, whose numbers are uncertain, are shown with a selection of clear calls. Calls follow the shape of the dose curve; as a rule, active = well fitted curve in the direction sought with a large enough effect in the signal ratio (not every such curve was filed as active); inconclusive = small, poorly fitted or top-dose-only effect, or a change in a side signal; inactive = flat fitted curve, though single readings scatter; the % refers to the signal ratio. Potencies beside an inconclusive call are fits to weak or partial responses and may not hold up.
# Assay: IkB Signaling;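 as to IkBa stabilization activation: 0% = basal untreated cells and 100% = reference inhibitor full response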
# Settings: ABC-DLBCL IkBa-CBG/CBR dual luciferase ratio (green luciferase fused to IkBa over red control in OCI-Ly3 lymphoma cells), 4 h; IkBa stabilization activation: at 57.1 µM (top of the series), scaled: untreated 0%, proteasome inhibitor 100% unless noted
# How it was run: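 Luminescence ratio of IκBα-fused green versus native red beetle luciferase in OCI-Ly3 cells, 4 h post-doxycycline with compound; red signal alone, scaled from basal (0%) to zero light (-100%), flagged nonspecific or cytotoxic effects.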
# Potency is read from the fitted curve at half-maximal effect.
SMILES,IkBa stabilization activation,Potency
COc1cccc(C2=CC(c3ccccc3F)n3c(nc4ccccc43)N2)c1 (stereo not given),inconclusive: 2.69% [signal inhibitor],
Cc1ccc2cc(C(c3nnnn3C3CCCC3)N(Cc3cccnc3)Cc3ccco3)c(=O)[nH]c2c1 (stereo not given),inconclusive: 2.84% [signal inhibitor],
CCOc1ccc(N2CC(c3nc4ccccc4n3CCOc3ccc(CC)cc3)CC2=O)cc1 (stereo not given),inconclusive: 0.264% [signal inhibitor],
CC1=C(C(=O)Nc2cccc(C(F)(F)F)c2)C(c2ccccc2)n2ncnc2N1 (stereo not given),inactive,
CCc1cccc(C)c1NC(=O)CCn1nc(C)c2c(C)n(-c3ccccc3)nc2c1=O,inactive,
Cc1nc2cc(-c3cccc(F)c3)nn2c(C)c1CCC(=O)NC(C)CCc1ccco1 (stereo not given),,"inconclusive: 3.16 µM [signal inhibitor, partial curve]"
Cc1ccc(CCNC(=O)c2ccc(NC(=O)N3CCSc4ccccc43)cc2)cc1,inconclusive: 0.902% [signal inhibitor],
CCOc1ccc2c(c1)c(=O)c(C(=O)c1ccc(CC)cc1)cn2CC(=O)Nc1ccccc1C,,inconclusive: 39.8 µM [signal inhibitor]
CCCN(C(=O)c1cc2c(=O)oc3ccccc3c2s1)c1ccccc1C,inconclusive: 10.3% [signal inhibitor],
COCC(=O)N1c2nc(-c3ccco3)nn2C2(CCCCC2)[C@@H]2CCCC[C@@H]21,inactive,
Cc1ccc(-n2nc3c(=O)n(CCCC(=O)NCc4ccccc4F)nc(C)c3c2C)cc1,inconclusive: 2.59% [signal inhibitor],
O=C(Nc1c(C(=O)N2CCN(c3ccccc3F)CC2)oc2ccccc12)c1ccccc1F,inconclusive: -1.83% [signal inhibitor],
O=C(CN1CCCN(Cc2ccc(F)cc2)S1(=O)=O)NCc1ccccc1Cl,inconclusive: 0.37% [signal inhibitor],
CCOC(=O)c1oc2ccccc2c1NC(=O)c1cccc(OC)c1OC,inactive,
CCC12CN3CC(CC)(CN(C1)C3c1cc(Br)ccc1OC)C2=O (stereo not given),inconclusive: 2.78% [signal inhibitor],
Cc1nc(-c2ccc(S(=O)(=O)N3CCN(c4ccc(F)cc4)CC3)cc2)co1,inconclusive: 5.33% [signal inhibitor],
O=C(Cn1c(-c2ccc(Cl)cc2)noc1=O)N1CCN(c2ccccc2F)CC1,inconclusive: 0.976% [signal inhibitor],
c1ccc2c(c1)OCC(c1csc3ncnc(N4CCOCC4)c13)O2 (stereo not given),inconclusive: -0.53% [signal inhibitor],
O=C(CSc1ccc2c(c1)OCCO2)Nc1ccc(Cl)cn1,inconclusive: 2.33% [signal inhibitor],
CCC(=O)N1CCc2cc(Br)cc(S(=O)(=O)CCC(=O)NCc3ccc(F)cc3)c21,inactive,
Cc1nonc1NC(=O)c1ccc(Cl)c(S(=O)(=O)N2CCCCC2)c1,inconclusive: 3.52% [signal inhibitor],
COc1cccc2c1Oc1ncccc1N(C(=O)CCC(=O)NCc1ccc(C)cc1)C2,inconclusive: 1.34% [signal inhibitor],
CCOc1cc(-c2nc(-c3cc(OC)c(OC)c(OC)c3)no2)cc(OCC)c1OCC,inactive,
Cc1cccc(OCCCn2c(CCNC(=O)C(C)(C)C)nc3ccccc32)c1,inconclusive: 0.585% [signal inhibitor],

SMILES,IkBa stabilization activation,Potency
Cc1cccc(OCCSc2nc3ccc(NC(=O)COc4ccccc4)cc3s2)c1,inconclusive: 2.56% [signal inhibitor],
Cc1cc(NC(=O)c2c(-c3ccccc3Cl)noc2C)no1,inactive,
Cc1cc(C)nc(-n2nc(C)cc2NC(=O)CN2CCCC(C)C2)n1 (stereo not given),inactive,
COc1ccc(S(=O)(=O)Nc2cc3c(cc2NCc2ccccc2)n(C)c(=O)n3C)cc1,,inconclusive: 15.8 µM [signal inhibitor]
O=C(NC1=NC2CCCCC2N1)c1ccccc1 (stereo not given),,"inconclusive: 3.16 µM [signal inhibitor, partial curve]"
COc1ccc(C2CC(c3c(O)cc(C)oc3=O)=NCCS2)c(OC)c1 (stereo not given),inactive,
Cc1cc(C)c(OCC(=O)N(Cc2cccc(F)c2)Cc2ccco2)c(C)c1,inconclusive: 0.936% [signal inhibitor],
CCc1nn(CC(=O)N2CCN(c3cccc(C(F)(F)F)c3)CC2)c(=O)c2cccn12,inactive,
CCOC(=O)c1ccc(NS(=O)(=O)c2ccc3[nH]c4c(c3c2)CCCCC4)cc1,inconclusive: -3.52% [signal inhibitor],
Cc1cccc(NC(=O)Cn2c(=O)oc3cc(S(=O)(=O)NC4CCCC4)ccc32)c1,inconclusive: 3.11% [signal inhibitor],
CN(C)S(=O)(=O)c1cc(C(=O)NCCCn2ccc3ccccc32)ccc1Cl,inactive,
O=C(CC1Sc2ccccc2NC1=O)Nc1cccc(C(=O)O)c1 (stereo not given),,"inconclusive: 20 µM [signal inhibitor, partial curve]"
CCOC(=O)c1cnc(SCc2ccccc2)nc1N,inactive,
Cn1nnnc1SCCCNCc1cccc(OCc2ccccc2Cl)c1,inconclusive: 1.29% [signal inhibitor],
CCc1ccc2nc(N3CCN(C(=O)C4CC4)CC3)sc2c1,inactive,
Cc1oc(-c2ccc(C(=O)Nc3ccccc3F)cc2)nc1COc1ccccc1,inactive,
CCN1C(=O)C(Cc2nc3ccccc3c(=O)n2-c2ccccc2)c2cc(Br)ccc21 (stereo not given),inconclusive: 0.852% [signal inhibitor],
COc1ccc(C)cc1NC(=O)CSc1nc(=O)n(Cc2ccccn2)c2c1CCC2,,inconclusive: 5.01 µM [signal inhibitor]
CC(=O)N1CCCc2cc(S(=O)(=O)Nc3ccc(C)c(F)c3)ccc21,inconclusive: 0.404% [signal inhibitor],
CCOc1ccc(NC(=O)CN2C(=O)C3(SCC(=O)N3c3ccc(F)cc3)c3ccccc32)cc1 (stereo not given),inconclusive: 1.23% [signal inhibitor],
O=C(Nc1nc(-c2ccccn2)cs1)c1ccc(Cl)s1,,active: 1 µM
COc1ccc(CNC(=O)CCc2nc(-c3ccc(C)cc3)no2)c(OC)c1,inconclusive: 1.65% [signal inhibitor],
Cn1c(SCC(=O)N2CCc3ccccc32)nc2cccnc21,inconclusive: 2.18% [signal inhibitor],
c1ccc(CN2CCN(CCCNc3ccc4nnc(-c5ccccc5)n4n3)CC2)cc1,inactive,

SMILES,IkBa stabilization activation,Potency
N#Cc1cccc(-c2nccc(NCc3cccs3)n2)c1,"inactive: -0.434% [at 11.4 µM, scaled: untreated 0%, proteasome inhibitor 100%]",
Cc1ccc(NC(=O)c2ccc(NC(=O)N3CCSc4ncccc43)cc2)c(C)c1,inactive,
COc1cc(C(=O)Nc2nonc2-c2ccc(C)c(C)c2)cc(OC)c1OC,inconclusive: 3.08% [signal inhibitor],
Cc1ccc(C(c2sc3nc(-c4ccco4)nn3c2O)N2CCC3(CC2)OCCO3)cc1 (stereo not given),inactive,
Cc1ccc(NC(=O)CSc2nc(-c3ccccc3Cl)nc3cc(=O)[nH]n23)c(C)c1,inconclusive: 4.88% [signal inhibitor],
COC(=O)c1c(C)nn(-c2ccc(F)cc2)c1-n1cccc1,inconclusive: -0.265% [signal inhibitor],
O=C(CSc1nc(-c2ccc(F)cc2)cc(C(F)(F)F)n1)NCCc1ccccc1,inactive,
Nc1ccccc1C(=O)Nc1cccc(C(=O)O)c1,,"inconclusive: 10 µM [signal inhibitor, partial curve]"
O=C(CCCn1c(=S)[nH]c2ccc(Br)cc2c1=O)N1CCN(c2ccccn2)CC1,inconclusive: 6.98% [signal inhibitor],
COc1cccc(N2CCN(C(=O)c3ccc(NC(=O)c4nsc5ccccc45)cc3)CC2)c1,,"inconclusive: 25.1 µM [signal inhibitor, partial curve]"
Cc1ccc(C(=O)NCc2ccc(F)cc2)cc1NC(=O)c1nsc2ccccc12,inconclusive: 0.863% [signal inhibitor],
CCN1C=CC(=C2C(=O)c3ccccc3C2=O)C=C1,inconclusive: 12.3% [signal inhibitor],
Oc1cc(CN2COc3ccccc32)c(O)cc1CNC1CCCCC1,"inactive: 3.06% [at 11.4 µM, scaled: untreated 0%, proteasome inhibitor 100%]",
CCOCCCn1c(=N)c(C(=O)NCC2CCCO2)cc2c(=O)n3cccc(C)c3nc21 (stereo not given),inconclusive: 5.34% [signal inhibitor],
Cc1cccc(NS(=O)(=O)c2ccc3c(c2)CCN3C(=O)C2CCC2)c1,inconclusive: 2.75% [signal inhibitor],
O=C(Nc1cccc(F)c1)c1ccc(-c2ccccc2)s1,,"inconclusive: 20 µM [signal inhibitor, partial curve]"
Cc1[nH]n2c(=O)cc(C(C)(C)C)nc2c1-c1ccccc1,inactive,
O=C(c1cccs1)N1CCCc2cc(NS(=O)(=O)c3ccc(F)cc3F)ccc21,inconclusive: 1.39% [signal inhibitor],
Cc1ccc(S(=O)(=O)c2cn(Cc3ccccc3Cl)c3ccc(F)cc3c2=O)cc1,inconclusive: 1.32% [signal inhibitor],
COc1ccc2c(c1)NC(c1cccnc1)=NC(c1ccc(F)cc1)=N2,inconclusive: -2.15% [signal inhibitor],
CC(C)(C)N(Cc1ccccc1)C(=O)CSc1nnc(CNc2ccc(F)cc2)o1,inconclusive: 13.3% [signal inhibitor],
CC(C)C(=O)Nc1ccc(-c2nc3cccnc3o2)cc1,inactive,
